Measured values: PubChem BioAssay (NCATS)
“And” between values parts separate entries of the source, which are not always exact repeats. Equal entries are not always repeated. The shares of active, inactive and inconclusive entries below differ from those in the screen. Where the call is inconclusive, the potency comes from a doubtful curve fit. The source made the active and inactive calls. Calls follow the shape of the dose curve; as a rule, active = well fitted cell-killing curve with a large enough effect; inconclusive = small, poorly fitted or top-dose-only effect, or effect the other way; inactive = flat fitted curve, though single readings scatter.

test system: Hek293T; test: Primary qHTS to identify gynecologic anti-cancer compounds using libraries of approved drugs and bioactive compounds (AID 1345084); details: Gynecologic cancer cell panel viability, ATPlite luminescence, 48 h, control line for the selectivity index; series mostly up to 57.5 µM; activity change, negative = cytotoxicity: at the top concentration; also: nearly all actives have a fitted effect of over 55% in size
Procedure, shortened: (§1)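 Luminescence from the ATPlite ATP-monitoring reagent indicates viable cell number; lower signal means cytotoxicity. Cells received compound 16 h after seeding and were exposed for 48 h across five concentrations.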
% is scaled to controls: 0 for no effect and ±100 for the full control effect; potency is read from the fitted curve at half-maximal effect; tags tell the direction and shape of the fitted curve.

Compound	activity change, negative = cytotoxicity	Potency
CN1CCN(c2cccc(Nc3nc4c(-c5ccc(S(C)(=O)=O)cc5)cccn4n3)c2)CC1	inactive: 16.2%	–
C[C@@H](NCCCc1cccc(C(F)(F)F)c1)c1cccc2ccccc12	–	inconclusive: 31.6 µM [cytotoxic, partial curve, poor fit]
CCCN[C@H]1CCc2nc(N)sc2C1	inactive: -1.16%	–
COc1c(N2CCNC(C)C2)c(F)cc2c(=O)c(C(=O)O)cn(C3CC3)c12 (stereo unspecified)	inactive: -15.4%	–
CC1(C)Cc2c(-c3ccccc3)c(-c3ccc(Cl)cc3)c(CC(=O)O)n2C1	–	inconclusive: 14.1 µM [cytotoxic, partial curve, poor fit]
COc1cc(N2CCC(N3CCN(C)CC3)CC2)ccc1Nc1ncnc(Nc2ccccc2S(=O)(=O)C(C)C)n1	–	inconclusive: 31.6 µM [cytotoxic, partial curve, poor fit]
Cc1ccc(-n2[nH]c(C)c(N=Nc3cccc(-c4cccc(C(=O)O)c4)c3O)c2=O)cc1C	–	inconclusive: 25.1 µM [cytotoxic, partial curve]
CN(C)[C@@H](CCOc1cccc2ccccc12)c1ccccc1	–	inconclusive: 39.8 µM [cytotoxic, single point]
CN1C(C(=O)Nc2ccccn2)=C(O)c2ccccc2S1(=O)=O	inactive: 0.914%	–
CC1(C)[C@H](C(=O)O)N2C(=O)C[C@H]2S1(=O)=O	–	inactive
OCCN1CCN(CCCN2c3ccccc3Sc3ccc(C(F)(F)F)cc32)CC1	–	inconclusive: 28.2 µM [cytotoxic, partial curve, poor fit]

test system: JEG-3; test: as above; details: Gynecologic cancer cell panel viability, ATPlite luminescence, 48 h; series mostly up to 57.5 µM; activity change, negative = cytotoxicity: at the top concentration
Procedure, shortened: as §1

Compound	activity change, negative = cytotoxicity	Potency
O=C(N[C@H](CO)[C@H](O)c1ccc([N+](=O)[O-])cc1)C(Cl)Cl	inactive: 27% [at 116 µM]	–
Cc1nc(Nc2ncc(C(=O)Nc3c(C)cccc3Cl)s2)cc(N2CCN(CCO)CC2)n1	–	inconclusive: 3.55 µM [rising, full curve, poor fit]
CC(C)(C)NC(=O)Nc1cccc(Nc2ncc(F)c(NC(C)(C)CO)n2)c1	inactive: -12%	–
CC[C@@]1(O)C(=O)OCc2c1cc1n(c2=O)Cc2cc3cc(O)ccc3nc2-1	–	inconclusive: 0.447 µM [cytotoxic, full curve, poor fit]
Cc1coc2c1C(=O)C(=O)c1c-2ccc2c1CCCC2(C)C	–	inconclusive: 28.2 µM [cytotoxic, partial curve]
CN(C[C@@H]1COCCO1)S(=O)(=O)Nc1ccc2ccc3ncc(-c4cnn(C)c4)cc3c(=O)c2c1	inactive: 0.104%	–
CNC(=O)c1cc(Oc2ccc(NC(=O)Nc3ccc(Cl)c(C(F)(F)F)c3)c(F)c2)ccn1	–	inconclusive: 39.8 µM [rising, single point]
CC1(C)O[C@@H]2C[C@H]3[C@@H]4CCC5=CC(=O)C=C[C@]5(C)[C@@H]4[C@@H](O)C[C@]3(C)[C@]2(C(=O)CO)O1	inactive: 12.8%	–
Clc1ccc(C(Cn2ccnc2)OCc2c(Cl)cccc2Cl)c(Cl)c1 (stereo unspecified)	–	inconclusive: 3.55 µM [rising, partial curve, poor fit]
Cc1ccn(-c2ccc(-c3ncco3)cc2)c(=O)c1-c1ccc2nc(N)ncc2c1	inactive: 16.2%	–
CNc1nc(Nc2ccc(C(=O)N3CCOCC3)cc2OC)ncc1Cl	–	inconclusive: 39.8 µM [cytotoxic, single point]
CC1CCC(C(=O)N(c2cc(C#CC(C)(C)C)sc2C(=O)O)C2CCC(O)CC2)CC1 (stereo unspecified)	–	inconclusive: 39.8 µM [rising, single point]
CN(C)C(=N)N=C(N)N	inactive: 2.36%	–

test system: OV90; test: as above; details: Gynecologic cancer cell panel viability, ATPlite luminescence, 48 h; series mostly up to 57.5 µM; activity change, negative = cytotoxicity: at the top concentration
Procedure, shortened: as §1

Compound	Potency	activity change, negative = cytotoxicity
C[C@@]1(C(=O)Nc2ccc(F)nc2)CCCN1c1nc(Nc2cc(C3CC3)[nH]n2)c2cccn2n1	inconclusive: 7.08 µM [cytotoxic, partial curve, poor fit]	–
O=C(N[C@H](CO)[C@H](O)c1ccc([N+](=O)[O-])cc1)C(Cl)Cl	inconclusive: 15.8 µM [cytotoxic, single point]	–
CN(CCOc1ccc(CC2SC(=O)NC2=O)cc1)c1ccccn1 (stereo unspecified)	inconclusive: 39.8 µM [cytotoxic, single point]	–
Clc1ccccc1C(c1ccccc1)(c1ccccc1)n1ccnc1	inconclusive: 39.8 µM [cytotoxic, single point]	–
Cc1nc(Nc2ncc(C(=O)Nc3c(C)cccc3Cl)s2)cc(N2CCN(CCO)CC2)n1	inconclusive: 10 µM [cytotoxic, partial curve, poor fit] and inconclusive: 398 nM [cytotoxic, full curve, poor fit]	–
COc1cc(N2CCC(N3CCN(C)CC3)CC2)ccc1Nc1ncc(Cl)c(Nc2ccccc2S(=O)(=O)C(C)C)n1	inconclusive: 1.26 µM [cytotoxic, partial curve, poor fit]	–
CC(C)(C)NC(=O)Nc1cccc(Nc2ncc(F)c(NC(C)(C)CO)n2)c1	–	inactive: -25%
CCCCOc1ccc(C(=O)Nc2ccc(F)cc2F)cc1	–	inactive: 5.33%
CCc1nc(N)nc(N)c1-c1ccc(Cl)cc1	active: 7.94 µM	–
CC[C@@]1(O)C(=O)OCc2c1cc1n(c2=O)Cc2cc3cc(O)ccc3nc2-1	inconclusive: 2.51 µM [cytotoxic, full curve, poor fit]	–
C[C@@H](NCCCc1cccc(C(F)(F)F)c1)c1cccc2ccccc12	inconclusive: 39.8 µM [cytotoxic, single point]	–
Cc1coc2c1C(=O)C(=O)c1c-2ccc2c1CCCC2(C)C	inconclusive: 25.1 µM [cytotoxic, single point]	–
CCCN[C@H]1CCc2nc(N)sc2C1	–	inactive: 1.93%
CN(C[C@@H]1COCCO1)S(=O)(=O)Nc1ccc2ccc3ncc(-c4cnn(C)c4)cc3c(=O)c2c1	–	inactive: 4.98%
CNC(=O)c1cc(Oc2ccc(NC(=O)Nc3ccc(Cl)c(C(F)(F)F)c3)c(F)c2)ccn1	inconclusive: 10 µM [cytotoxic, partial curve, poor fit]	–
Clc1ccc(C(Cn2ccnc2)OCc2c(Cl)cccc2Cl)c(Cl)c1 (stereo unspecified)	inactive	–
COc1cc(N2CCC(N3CCN(C)CC3)CC2)ccc1Nc1ncnc(Nc2ccccc2S(=O)(=O)C(C)C)n1	active: 8.91 µM	–
CN(C)[C@@H](CCOc1cccc2ccccc12)c1ccccc1	inconclusive: 17.8 µM [cytotoxic, partial curve, poor fit]	–
CN1C(C(=O)Nc2ccccn2)=C(O)c2ccccc2S1(=O)=O	–	inactive: -4.16%
CNc1nc(Nc2ccc(C(=O)N3CCOCC3)cc2OC)ncc1Cl	inconclusive: 0.398 µM [cytotoxic, full curve, poor fit]	–
OCCN1CCN(CCCN2c3ccccc3Sc3ccc(C(F)(F)F)cc32)CC1	inconclusive: 25.1 µM [cytotoxic, single point]	–
CN(C)C(=N)N=C(N)N	–	inactive: 6.2%
